Test results taken from EPA's CvTdb concentration-time database.

Tests used:
[1] = tested on: Mouse; test: concentration in plasma after dosing; details: 1 h; dosed: Benzophenone; 15 mg/kg; oral; Female; B6C3F1
[2] = tested on: Rat; test: concentration in plasma after dosing; details: dosed: Benzophenone, 5 mg/kg, oral, Female, F344
[3] = tested on: Mouse; test: concentration in plasma after dosing; details: 1.5 h; dosed: Benzophenone; 30 mg/kg; oral; Male; B6C3F1
[4] = tested on: Mouse; test: concentration in plasma after dosing; details: 4 min; dosed: Benzophenone; 15 mg/kg; iv; Male; B6C3F1
[5] = tested on: Mouse; test: concentration in plasma after dosing; details: 1 h; dosed: Benzophenone; 30 mg/kg; oral; Male; B6C3F1
[6] = tested on: Rat; test: concentration in blood after dosing; details: 0.5 h; dosed: Benzophenone; 5 mg/kg; oral; Female; F344
[7] = tested on: Rat; test: concentration in plasma after dosing; details: 16 h; dosed: Benzophenone; 5 mg/kg; oral; Male; F344
[8] = tested on: Mouse; test: concentration in plasma after dosing; details: 2 h; dosed: Benzophenone; 60 mg/kg; oral; Female; B6C3F1
[9] = tested on: Rat; test: concentration in blood after dosing; details: 0.125 h; dosed: Benzophenone; 10 mg/kg; oral; Female; F344
[10] = tested on: Rat; test: concentration in plasma after dosing; details: dosed: Benzophenone, 10 mg/kg, oral, Male, F344
[11] = tested on: Mouse; test: concentration in plasma after dosing; details: 20 min; dosed: Benzophenone; 15 mg/kg; iv; Female; B6C3F1
[12] = tested on: Mouse; test: concentration in plasma after dosing; details: 2 h; dosed: Benzophenone; 15 mg/kg; iv; Female; B6C3F1
[13] = tested on: Mouse; test: concentration in plasma after dosing; details: 5 min; dosed: Benzophenone; 30 mg/kg; oral; Female; B6C3F1
[14] = tested on: Rat; test: concentration in plasma after dosing; details: dosed: Benzophenone, 10 mg/kg, oral, Male, F344; remark: listed apart in the source
[15] = tested on: Mouse; test: concentration in plasma after dosing; details: 1.5 h; dosed: Benzophenone; 15 mg/kg; oral; Male; B6C3F1
[16] = tested on: Mouse; test: concentration in plasma after dosing; details: 0.25 h; dosed: Benzophenone; 15 mg/kg; iv; Female; B6C3F1
[17] = tested on: Mouse; test: concentration in plasma after dosing; details: 3 h; dosed: Benzophenone; 60 mg/kg; oral; Male; B6C3F1
[18] = tested on: Rat; test: concentration in plasma after dosing; details: 16 h; dosed: Benzophenone; 10 mg/kg; oral; Female; F344
[19] = tested on: Mouse; test: concentration in plasma after dosing; details: 2.5 min; dosed: Benzophenone; 60 mg/kg; oral; Male; B6C3F1
[20] = tested on: Mouse; test: concentration in plasma after dosing; details: 1 h; dosed: Benzophenone; 30 mg/kg; oral; Male; B6C3F1; remark: listed apart in the source
[21] = tested on: Rat; test: concentration in plasma after dosing; details: 16 h; dosed: Benzophenone; 5 mg/kg; oral; Male; F344; remark: listed apart in the source
[22] = tested on: Mouse; test: concentration in plasma after dosing; details: 1.5 h; dosed: Benzophenone; 30 mg/kg; oral; Female; B6C3F1
[23] = tested on: Rat; test: concentration in blood after dosing; details: 0.125 h; dosed: Benzophenone; 5 mg/kg; oral; Male; F344
[24] = tested on: Mouse; test: concentration in plasma after dosing; details: 2 h; dosed: Benzophenone; 15 mg/kg; iv; Male; B6C3F1
[25] = tested on: Mouse; test: concentration in plasma after dosing; details: 3 h; dosed: Benzophenone; 30 mg/kg; oral; Male; B6C3F1
[26] = tested on: Mouse; test: concentration in plasma after dosing; details: 0.5 h; dosed: Benzophenone; 30 mg/kg; oral; Female; B6C3F1
[27] = tested on: Rat; test: concentration in blood after dosing; details: 5 min; dosed: Benzophenone; 5 mg/kg; oral; Male; F344
[28] = tested on: Mouse; test: concentration in plasma after dosing; details: 0.5 h; dosed: Benzophenone; 60 mg/kg; oral; Male; B6C3F1
[29] = tested on: Mouse; test: concentration in plasma after dosing; details: 0.25 h; dosed: Benzophenone; 15 mg/kg; oral; Female; B6C3F1
[30] = tested on: Mouse; test: concentration in plasma after dosing; details: 0.125 h; dosed: Benzophenone; 15 mg/kg; oral; Male; B6C3F1
[31] = tested on: Rat; test: concentration in plasma after dosing; details: dosed: Benzophenone, 10 mg/kg, oral, Male, F344; remark: listed apart in the source
[32] = tested on: Mouse; test: concentration in plasma after dosing; details: 2.5 min; dosed: Benzophenone; 30 mg/kg; oral; Female; B6C3F1
[33] = tested on: Mouse; test: concentration in plasma after dosing; details: 0.5 h; dosed: Benzophenone; 15 mg/kg; oral; Male; B6C3F1
[34] = tested on: Mouse; test: concentration in plasma after dosing; details: 6 h; dosed: Benzophenone; 30 mg/kg; oral; Female; B6C3F1
[35] = tested on: Rat; test: concentration in plasma after dosing; details: dosed: Benzophenone, 10 mg/kg, oral, Female, F344
[36] = tested on: Mouse; test: concentration in plasma after dosing; details: 0.125 h; dosed: Benzophenone; 30 mg/kg; oral; Female; B6C3F1
[37] = tested on: Mouse; test: concentration in plasma after dosing; details: 20 min; dosed: Benzophenone; 15 mg/kg; iv; Male; B6C3F1
[38] = tested on: Rat; test: concentration in plasma after dosing; details: 16 h; dosed: Benzophenone; 5 mg/kg; oral; Female; F344
[39] = tested on: Mouse; test: concentration in plasma after dosing; details: 1.5 h; dosed: Benzophenone; 15 mg/kg; iv; Female; B6C3F1
[40] = tested on: Mouse; test: concentration in plasma after dosing; details: 1 h; dosed: Benzophenone; 60 mg/kg; oral; Male; B6C3F1
[41] = tested on: Rat; test: concentration in blood after dosing; details: 0.5 h; dosed: Benzophenone; 10 mg/kg; oral; Male; F344

O=C(c1ccccc1)c1ccccc1 [Benzophenone]
Details	concentration in blood [ng/mL]	concentration in plasma [ng/mL]
[1]	–	166
[3]	–	204
[4]	–	5410
[5]	–	252
[6]	479	–
[7]	–	20.9
[8]	–	634
[9]	2140	–
[11]	–	1680
[12]	–	95.1
[13]	–	1340
[15]	–	57.9
[16]	–	2400
[17]	–	228
[18]	–	39.4
[19]	–	1680
[20]	–	319
[21]	–	38.7
[22]	–	692
[23]	389	–
[24]	–	118
[25]	–	69.9
[26]	–	477
[27]	314	–
[28]	–	1950
[29]	–	446
[30]	–	755
[32]	–	967
[33]	–	152
[34]	–	21.6
[36]	–	1580
[37]	–	1830
[38]	–	21.8
[39]	–	269
[40]	–	730
[41]	1300	–

Details	concentration in plasma [ng/mL]
[2], 1 h	169
[2], 2.5 min	22
[10], 1 h	227
[10], 2.5 min	28.4
[14], 0.125 h	413
[14], 3 h	184
[31], 0.5 h	484
[31], 10 h	105
[35], 1 h	216
[35], 2.5 min	39.6
